# Measured values taken from the supplement of paper PMC11417369.
# This is one part of the list.
# System: PfHDP1 homeodomain (GST-tagged)
# Assay: gcPBM binding intensity (ln(normalized median fluorescence intensity)); higher = stronger DNA binding
# How it was run: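 Binding intensity is the highest Masliner-normalised natural-log median intensity over replicate spots in either probe orientation. To obtain it, GST-tagged P. falciparum DNA-binding domains made in E. coli were incubated for 1 h on an Agilent 4 × 180k array of primer-extended double-stranded 36-bp intergenic genomic probes plus negative controls. Detection used Alexa488 anti-GST antibody with scanning at 488 nm.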
row,Sequence,gcPBM binding intensity (ln)
1,AATTTATAAGAATATTGTACGTTTAATATATTGTAA [XGTACX_site7553],6.48
2,TCACACACTCTCAAAAGTACAAGAAGATTATGAAGA [XGTACX_site4748],6.6
3,ATCTATCATATTTATGCACACAAAAATAATTAATTC [CACACA_site8837],9.66
4,ATGAACTAAACTAATCGTACAATAAGTTTTATTATA [XGTACX_site4891],6.11
5,AAAAAAATATATAAATGTACATATTGTTTAATTAAT [XGTACX_site3794],6.47
6,TATTATTTACTTATTGCACACATATAAAATATATTT [CACACA_site9017],10.2
7,TAAAAGATAAAATATGCATGTGTAATTTTTTTTTTT [TGCATGCA_site955],6.4
8,TTTATAACATTTAAGAGTACAAAAAAATAAATAAAT [XGTACX_site1264],6.71
9,TTCAACGTTTTGGAATGTACAGAAAGGTATCCATCA [XGTACX_site179],6.43
10,GAAATATAATTTATTACACACATTTTAAAAAAATTC [CACACA_site1087],6.07
11,AAAAAAAAAAAAAAAAAAAAAAAAAAAAAATATGTG [GTGCAC_negctrl_site657],7.24
12,TAATTTATTACCATGTAATTATTACGAATATAGGAT [CACACA_negctrl_site694],6.46
13,AAAAAATTATTAATTTGTACATAAATAACCAAAAAA [XGTACX_site2488],6.36
14,TATATATTAAAATAATCACACACATCAATTAATGGT [CACACA_site8331],6.55
15,TTTTTTTTTTTTTTTTTTTTTTTTTTATGATATATA [GTGCAC_negctrl_site365],6
16,ATATTATAATGTTTTTACGAATTCGCAAATTATTAT [GTGCAC_negctrl_site470],6.52
17,ATATGCACTCATTGTGCACACGCATATTACGAAAAG [CACACA_site2637],11.6
18,AATTTACAAAAAAGAAAAAAAAAAAAAAAGATACTT [CACACA_negctrl_site1434],5.89
19,TTAATTATCCATTTTGCACACATTTTAAAACATGAA [CACACA_site189],10.7
20,AGATTGTATTTATGTACACACATTTTTGGAATATGA [CACACA_site1340],6.95
21,TTAAATATAATTATATGTACATATTTATGTATATAT [XGTACX_site5811],6.32
22,TTGATTAAAATTAGTACACACAAAATACATGCGGGG [CACACA_site5284],6.95

row,Sequence,gcPBM binding intensity (ln)
1,AATAAAAAATATATGAGTACTAAATTGTTTTCTTAA [XGTACX_site8573],6.22
2,GGGAAAATAAATAAAGTGCAGATATTAAAAGTTGTA,7.04
3,TTGCATATTTCTAATTGTACATTATTTTATTTTATA [XGTACX_site8451],6.9
4,CTCAACGATAGAGAAACATGCAAGTATAAGCAACTA [TGCATGCA_site771],6.83
5,ATTTTACATATTTGCACACATATATTTAAATACATA [CACACA_site4627],10.8
6,GAGTTATTTCTTATTTAAGCATTCTACATATATATA [CACACA_negctrl_site239],6.6
7,AAGAAAATTAAATTAACACACATAAATATATATATA [CACACA_site1664],8.61
8,ATATTTATCTTTTTATGTACATATGCCCCTTTTCTG [XGTACX_site673],6.96
9,TCTTGGTTATTAAAAAAAAAAAAATATATTTTTCCT [TGCATGCA_negctrl_site445],6.06
10,GTCCTTATGGATGATAAATTATTTTAAATATTCTAT [XGTACX_negctrl_site200],5.96
11,ATTCACTAAAAAATTGCATGCAATAAATTTTTTTTT [TGCATGCA_site962],6.5
12,TTTTATTGTTGTTATACACACCATATAAAATATTTC [CACACA_site4983],6.79
13,AATTGATTTATATATTGTACATATAAATTTATGTAT [XGTACX_site7785],6.23
14,TAATTGTACGCCAATACACACAGAATTAGAATGTAG [CACACA_site102],6.59
15,ATAAATAAATGGTGTTGTACTCTATTATATATATAT [XGTACX_site7835],8.31
16,AATAAATATAGATTCACACACAAACATATATAAATA [CACACA_site7814],6.62
17,AAAAAAAAAATATATATATATATATATATATAATTT [GTGCAC_negctrl_site32],7.25
18,AAGAAAAAAATTTATACAAGAATTTTTTATTATTAA [TGCATGCA_negctrl_site587],5.99
19,TCATATGTTTCATGTTGTACATTGAAAGTTTGGCTA [XGTACX_site3202],6.26
20,AAATATGTACATATTATATATATATAATATATATTG [TGCATGCA_negctrl_site438],6.43
21,GTTCTAATATATTGCACACGTAAAAATATAGGTAAT [CACACA_site886],10.6
22,TGTTAATTAAAGGACTGTACACTAATAATTCTATAA [XGTACX_site5195],6.17

row,Sequence,gcPBM binding intensity (ln)
1,TTAAAAAGTGCGTAGTGTACTAATATAAATAATACA [XGTACX_site2922],6.47
2,TGAATAAATATATATACACACCCATATATATATATA [CACACA_site8833],9.21
3,AATGTATATAATATTAATATGTAAATATATAATCAA [CACACA_negctrl_site1683],6.39
4,AAATAAAAACCATATCGTACAAAAATTTTTGTATTT [XGTACX_site7497],6.27
5,ATATATATATATATATGTACTTAAAAATTTGTTTTG [XGTACX_site1514],9.38
6,GATCACTGAATAAAGGCACACATCTGACTAATTTTT [CACACA_site66],6.23
7,AAGTCAATTTTTTTTTTTTTTTTTTAACTTATTAAT [TGCATGCA_negctrl_site14],5.85
8,ATTATTATATATATAACACACATAATTATATACTTA [CACACA_site1563],6.83
9,TATACCTATAAATACACACACATATATAAATATGTA [CACACA_site6625],6.68
10,TCCTTAAAAATCTAAAAAGAAAAAAACATATATTTT [GTGCAC_negctrl_site123],6.04
11,ATATTTAAATCGAAGGTGCGTATTTCCTTTTTTTTT [GTGCAC_site9632],6.31
12,CTCATCCTTACATACACACACATATATATATATATA [CACACA_site103],9.2
13,ATTCATTTCTATTTTACACACAATAAGTAACTTAAT [CACACA_site2850],6.84
14,AGTATAAATAAATCATAAACATATATATATATATAT [GTGCAC_negctrl_site356],9.35
15,ATATATACATATAACACACACATATATATATATATA [CACACA_site2575],9.18
16,TTTATTTATTATTAAAGTACTAAATCATATTATTAT [XGTACX_site992],6.04
17,TATACATTATCTTATGCATGCGCATCTGCATATAAA [TGCATGCA_site266],7.31
18,TTTTCTTTTTTCTGTTGTACTAAAAATAATTTTGTA [XGTACX_site5171],6.51
19,CCACTAATAAATATTACACACATATATATATATATT [CACACA_site3128],6.84
20,TATTTATATATTATGTGTCCACATGTAAGCTATCTT [XGTACX_site3887],6.37
21,AACATATACCCAGGTACATGCAAATATATATATTAT [TGCATGCA_site878],6.86
22,ATATATATATATATGTGTACACAACAAAATAAAAAA [XGTACX_site7378],9.25

row,Sequence,gcPBM binding intensity (ln)
1,TTTAAAAATTAATTCTGTACACATTTTTATTTTATT [XGTACX_site8],6.61
2,TTCTTTCTTCAAAAGTGTACCAAATGTTAGAAAGGT [XGTACX_site4353],7.28
3,AAAAAAATAACAAAATGTATACAATATAACAAAAAT [GTGCAC_negctrl_site512],7.03
4,ATGACATGTTCTAAATGTACATTTTTTAACCCTTTT [XGTACX_site1858],6.69
5,ATAAATAAATAAGTACATATATATATGTATATATAT [TGCATGCA_negctrl_site223],7.34
6,TATACAAGTATATAGGTGCATATATAAGTATATATT [GTGCAC_site9994],9.55
7,TATGGTTACATTATATGTACTAAACGAATATTTTTA [XGTACX_site5694],6.05
8,TAATAACATACAGACACACACGTAAAAGCACGTGTA [CACACA_site4299],6.34
9,TACTTTCAAAAGATCACACATATATATATATATATA [CACACA_site5630],9.53
10,ATTATAATGTTAATGTGTACATATGATTCCTTAATT [XGTACX_site181],6.92
11,TATGTTTTTACATATTGTACATATTCTTGTAATACG [XGTACX_site1179],6.29
12,TATGTGTGCAAAAACTGTACACATTAAAGGTATATA [XGTACX_site7627],10.3
13,TTTTTAACCAAACATCAAAACATATTTTTTTGTTAT [CACACA_negctrl_site385],6.36
14,GTATACCTTTTGACATGTACGTATGTATATTTGGGT [XGTACX_site720],6.67
15,CATACATACAAACACACACACACACCCATATATATA [CACACA_site2918],7.05
16,TTCTCAAAATTAAAATAACAGATTAACGAACTAACG [CACACA_negctrl_site1720],6.35
17,TAATATATATATATATGTACATATATATTATGTATA [XGTACX_site4690],6.36
18,AGATTATTTAGAATGTGTACATATTACACATACATG [XGTACX_site8634],6.58
19,ACTACATTATGTCATACATGCATACATACGTGGTTT [TGCATGCA_site732],6.51
20,AGTAATTTAAGGAATACACACAAGAAAAAAATAAGA [CACACA_site6177],7.26
21,CATTAAAAGTATAATTGTACTTTTCATTTATATATT [XGTACX_site7536],6.27
